Data from publication PMC4336329 (PLoS ONE, 2015).
The whole screen tested about 310,000 compounds, of which about 2,200 (0.71%) showed an effect of 50% or more. Effects have a minus sign here. This is one part of the list.

Biological target: human ether-à-go-go-related gene (hERG) potassium channel (human, UniProt Q12809)
Experiment: primary screen, population patch clamp on CHO cells stably expressing hERG

Sequence of human ether-à-go-go-related gene (hERG) potassium channel (Q12809 whole entry, looked up): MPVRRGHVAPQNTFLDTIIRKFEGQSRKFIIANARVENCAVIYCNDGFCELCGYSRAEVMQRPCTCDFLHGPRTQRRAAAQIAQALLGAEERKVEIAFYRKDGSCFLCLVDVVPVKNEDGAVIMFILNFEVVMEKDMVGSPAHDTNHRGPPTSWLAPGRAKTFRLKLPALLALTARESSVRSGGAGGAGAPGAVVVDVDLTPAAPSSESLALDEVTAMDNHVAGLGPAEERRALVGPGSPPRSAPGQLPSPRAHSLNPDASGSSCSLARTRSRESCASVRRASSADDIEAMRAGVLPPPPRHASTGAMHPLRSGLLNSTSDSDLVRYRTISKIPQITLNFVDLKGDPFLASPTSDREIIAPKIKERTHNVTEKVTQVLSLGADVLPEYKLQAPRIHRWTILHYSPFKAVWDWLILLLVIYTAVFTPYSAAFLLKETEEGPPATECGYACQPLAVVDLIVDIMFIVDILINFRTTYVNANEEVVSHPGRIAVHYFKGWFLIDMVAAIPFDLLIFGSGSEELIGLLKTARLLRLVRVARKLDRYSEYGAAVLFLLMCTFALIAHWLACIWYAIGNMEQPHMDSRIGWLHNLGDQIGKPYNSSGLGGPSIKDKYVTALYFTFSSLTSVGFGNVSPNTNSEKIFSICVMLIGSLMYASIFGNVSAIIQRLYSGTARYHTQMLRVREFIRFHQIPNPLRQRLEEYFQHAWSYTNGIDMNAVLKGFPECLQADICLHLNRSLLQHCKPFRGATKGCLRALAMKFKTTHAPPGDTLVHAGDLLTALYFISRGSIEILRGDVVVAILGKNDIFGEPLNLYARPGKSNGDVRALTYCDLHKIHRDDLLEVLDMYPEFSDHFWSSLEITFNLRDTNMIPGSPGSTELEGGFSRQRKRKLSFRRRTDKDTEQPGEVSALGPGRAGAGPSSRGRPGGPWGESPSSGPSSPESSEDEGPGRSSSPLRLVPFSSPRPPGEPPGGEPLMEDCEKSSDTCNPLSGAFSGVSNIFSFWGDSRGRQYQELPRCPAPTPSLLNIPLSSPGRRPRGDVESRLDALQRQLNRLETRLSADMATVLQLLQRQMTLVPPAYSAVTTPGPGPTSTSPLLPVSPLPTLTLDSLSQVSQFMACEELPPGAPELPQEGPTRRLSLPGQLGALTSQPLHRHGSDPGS

Structure (SMILES) | hERG current change (%, negative = inhibition) at 1uM
CCOCc1nnc(NC(=O)C2CCN(C(=O)c3ccco3)CC2)s1 | 14.4%
CNC(=O)C(Sc1nc(C)nc2c1oc1ccccc12)C(C)=O (centres unmarked) | 10.4%
CCc1nnc(NC(=O)c2sc3nc4c(cc3c2N)CCCCCC4)s1 | 8.62%
CCOC(=O)C1=C(C)Nc2nc3ccccc3n2C1c1ccc(O)cc1 (centres unmarked) | 10.5%
O=C(COc1ccc(Br)cc1)Nc1ccc2oc(=O)ccc2c1 | 6.49%
Cc1ccc(C)c(Nc2c([N+](=O)[O-])c(=O)oc3ccccc23)c1 | 3.87%
CCOc1ccc(-n2nnnc2SCC(=O)Nc2cccc(O)c2)cc1 | 12.5%
O=C(/C=C/c1cccc(F)c1)c1ccc(N2CCOCC2)cc1 | -0.411%
COc1cccc(C(=O)C2CCCN(Cc3cn[nH]c3C3CCCCC3)C2)c1 (centres unmarked) | 1.53%
COc1cccc(CN2CCN(Cc3cc4ccccc4[nH]3)CC2CCO)c1 (centres unmarked) | -14.3%
OCc1nc2ccccc2n1C/C=C/c1ccccc1 | 4.41%
Cc1[nH]n(-c2ccccc2)c(=O)c1C=NCc1ccco1 | 8.95%
CCS(=O)(=O)c1nc(S(=O)(=O)c2ccc(C)cc2)c(N2CCC(C)CC2)s1 | 7.27%
O=C(CSc1nn(-c2ccccc2)c(=S)s1)NC1CCS(=O)(=O)C1 (centres unmarked) | 11%
Br.CC(C)CC1CC(C)(c2csc(NNC(=O)c3ccccc3)n2)OC1=O (centres unmarked) | -11.3%
CC(=O)c1c(C)[nH]c(C(=O)Nc2cccc(C)c2C)c1C | 4.47%
COc1ccc(C(=O)Nc2c(Cl)cc(Cl)cc2C(=O)NCc2ccco2)cc1 | 22.7%
Cn1c(=O)c(C(=O)NNC(=O)c2ccccc2Br)c(O)c2ccccc21 | 9.93%
CCc1ccc(OCC(=O)N/N=C(\C)c2ccc(-n3ccnc3)cc2)cc1 | -7.7%
COc1ccc(C2CC(c3ccc(OC)c(OC)c3)=NN2S(C)(=O)=O)cc1 (centres unmarked) | 4.81%
CCN(CC)S(=O)(=O)c1cccc(C(=O)N[C@H](C(=O)OCC(=O)NC(=O)NC)C(C)C)c1 | 5.78%
COc1ccc(-c2nnc(SCC(=O)Oc3ccc(C)cc3)o2)cc1 | 7.8%

Structure (SMILES) | hERG current change (%, negative = inhibition) at 1uM
Cc1ccc2nc(NC(=S)NC(=O)c3ccc(OC(C)C)cc3)sc2c1 | 11.4%
CCCNC(=O)c1c(N)n(-c2cc(OC)cc(OC)c2)c2nc3ccccc3nc12 | 1.39%
CC(c1nccs1)N(C)C(=O)CCc1nnc(-c2ccc(-c3ccccc3)cc2)o1 (centres unmarked) | 4.66%
Cc1nonc1NC(=O)CSc1nnc(-c2ccoc2C)n1CC(C)C | 7.29%
COc1ccc(CCNC(=O)CSc2nc(N)c(C#N)c(-c3cccs3)c2C#N)cc1OC | 11.8%
S=C(NNc1nc(Nc2ccccc2)nc(N2CCCCC2)n1)NC1CCCCC1 | 16.2%
O=C(CCl)N(c1ccc(Cl)cc1)c1c[nH]c2ccccc12 | 12%
Fc1ccc(C2c3cccn3CCN2C(=S)Nc2cccc(Br)c2)cc1 (centres unmarked) | 20%
COC(=O)c1cccc(NC(=O)Nc2ccc(Cl)cc2Cl)c1 | 13.8%
O=C(c1cccnc1)N1N=C(c2cccs2)CC1c1ccc(F)cc1 (centres unmarked) | 2.99%
Cc1cccc(/C=N/Nc2ccc3ccccc3n2)c1 | 4.22%
CC/C(C)=N\NC(=O)CNC(=O)c1ccc(Cl)cc1Cl | 0.352%
Cc1ccc(SCc2cc(=O)[nH]c(SCC(=O)Nc3cc(Cl)ccc3Cl)n2)cc1 | 23.3%
Cc1ccc(NC(=O)C(=O)NC2CCCCC2)cc1 | 14.1%
Cc1cc([N+](=O)[O-])nn1CC(=O)NCc1cccs1 | 8.25%
Nc1nonc1-n1nnc(C(=O)N/N=C/c2ccco2)c1-c1ccccc1 | 9.78%
Cc1ccc(S(=O)(=O)N2CCOCC2)cc1NC(=O)COC(=O)Cc1cccs1 | -13.7%
COc1ccc(N(CC(=O)N2CCN(c3ccccc3F)CC2)S(=O)(=O)c2c(C)n[nH]c2C)cc1 | -3.21%
COC(=O)N1CCN(c2ccc(C)c(C)c2)CC1 | -6%
COc1ccccc1-n1c(CNC(=O)c2ccccc2)nnc1SCC(=O)Nc1nnc(C)s1 | 13.4%
CCC(=O)Nc1cccc(C(=O)/C=C/c2ccccc2)c1 | 0.148%
CCCCNC(=S)N(CCCO)Cc1cc2cc3c(cc2[nH]c1=O)OCCO3 | 6.85%
